B1: Inner centromere protein (Homo sapiens), Q9NQS7 (parent)
chain: MGTTAPGPIHLLELCDQKLMEFLCNMDNKDLVWLEEIQEEAERMFTREFSKEPELMPKTPSQKNRRKKRRISYVQDENRDPIRRRLSRRKSRSSQLSSRRLRSKDSVEKLATVVGENGSVLRRVTRAAAAAAAATMALAAPSSPTPESPTMLTKKPEDNHTQCQLVPVVEIGISERQNAEQHVTQLMSTEPLPRTLSPTPASATAPTSQGIPTSDEESTPKKSKARILESITVSSLMATPQDPKGQGVGTGRSASKLRIAQVSPGPRDSPAFPDSPWRERVLAPILPDNFSTPTGSRTDSQSVRHSPIAPSSPSPQVLAQKYSLVAKQESVVRRASRRLAKKTAEEPAASGRIICHSYLERLLNVEVPQKVGSEQKEPPEEAEPVAAAEPEVPENNGNNSWPHNDTEIANSTPNPKPAASSPETPSAGQQEAKTDQADGPREPPQSARRKRSYKQAVSELDEEQHLEDEELQPPRSKTPSSPCPASKVVRPLRTFLHTVQRNQMLMTPTSAPRSVMKSFIKRNTPLRMDPKCSFVEKERQRLENLRRKEEAEQLRRQKVEEDKRRRLEEVKLKREERLRKVLQARERVEQMKEEKKKQIEQKFAQIDEKTEKAKEERLAEEKAKKKAAAKKMEEVEARRKQEEEARRLRWLQQEEEERRHQELLQKKKEEEQERLRKAAEAKRLAEQREQERREQERREQERREQERREQERREQERQLAEQERRREQERLQAERELQEREKALRLQKEQLQRELEEKKKKEEQQRLAERQLQEEQEKKAKEAAGASKALNVTVDVQSPACTSYQMTPQGHRAPPKINPDNYGMDLNSDDSTDDEAHPRKPIPTWARGTPLSQAIIHQYYHPPNLLELFGTILPLDLEDIFKKSKPRYHKRTSSAVWNSPPLQGARVPSSLAYSLKKH

Variants of: B1
Settings: with cbx5_human CBX5, P45973

effect of a mutation on the interaction | Variant
decreasing interaction strength | P167A;V169A;I171A

Source: IntAct's records for PubMed 21346195
